# Laboratory results taken from the supplement of paper PMC8728848.
# Some of the results follow.
# B1: Di AAL2 (Agrocybe aegerita) (protein)
# chain: MTSNVITQDLPIPVASRGFADIVGFGLDGVVIGRNAVNLQPFLAVKNFAQNAGGWLTTKHVRLIADTTGTGKGDIVGFGNAGVYVSVNNGKNTFADPPKMVIANFGYDAGGWRVEKHLRYLADIRKIGRADIIGFGEKGVLVSRNNGGLNFGPATLVLKDFGYDAGGWRLDRHLRFLADVTGNGHLDIVGFGDKHVFISRNNGDGTFAPAKSVIDNFCIDAGGWKIGDHPRFVADLTGDGTADIIGCGKAGCWVALNNGGGVFGQVKLVINDFGTDKGWQAAKHPRFIADLTGNGRGDVVGFGNAGVYVALNNGDGTFQSAKLVLKDFGVQQGWTVSKHRRFVVDLTGDGCADIIGFGEKETLVSYNDGKGNFGPVKALTNDFSFSGGKWAPETTVCWMANLDSSRHPAPAPMTSNVITQDLPIPVASRGFADIVGFGLDGVVIGRNAVNLQPFLAVKNFAQNAGGWLTTKHVRLIADTTGTGKGDIVGFGNAGVYVSVNNGKNTFADPPKMVIANFGYDAGGWRVEKHLRYLADIRKIGRADIIGFGEKGVLVSRNNGGLNFGPATLVLKDFGYDAGGWRLDRHLRFLADVTGNGHLDIVGFGDKHVFISRNNGDGTFAPAKSVIDNFCIDAGGWKIGDHPRFVADLTGDGTADIIGCGKAGCWVALNNGGGVFGQVKLVINDFGTDKGWQAAKHPRFIADLTGNGRGDVVGFGNAGVYVALNNGDGTFQSAKLVLKDFGVQQGWTVSKHRRFVVDLTGDGCADIIGFGEKETLVSYNDGKGNFGPVKALTNDFSFSGGKWAPETTVCWMANLDSSRH
# How the values were obtained:
# Experiment in all cases: glycan array binding signal (z-score within array); higher = stronger binding
# Conditions in all cases: glycan notation: IUPAC condensed, linker removed
# [1] = molecular target: Neu5Ac(a2-6)Gal(b1-4)GlcNAc(b1-3)Gal(b1-4)GlcNAc(b1-3)GalNAc
# Outline: (§1)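 Arrays were curated from the Consortium for Functional Glycomics database, 3228 in total, and kept only where the protein sequence was available. Binding is expressed as a within-array Z-score. This score was averaged across arrays of the same protein sequence at different concentrations or buffers and across linkers, and negative values can be read as non-binding.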
# [2] = molecular target: Neu5Ac(a2-6)Gal(b1-4)GlcNAc(b1-3)Gal(b1-4)GlcNAc(b1-3)[Neu5Ac(a2-6)Gal(b1-4)GlcNAc(b1-3)Gal(b1-4)GlcNAc(b1-6)]GalNAc
# Outline: as §1
# [3] = molecular target: Neu5Ac(a2-6)Gal(b1-4)GlcNAc(b1-3)Gal(b1-4)GlcNAc(b1-6)[Gal(b1-3)]GalNAc
# Outline: as §1
# [4] = molecular target: Neu5Ac(a2-6)Gal(b1-4)GlcNAc(b1-3)Gal(b1-4)[Fuc(a1-3)]GlcNAc(b1-3)Gal(b1-4)[Fuc(a1-3)]GlcNAc
# Outline: as §1
# [5] = molecular target: Neu5Ac(a2-6)Gal(b1-4)GlcNAc(b1-3)GalNAc
# Outline: as §1
# [6] = molecular target: Neu5Ac(a2-6)Gal(b1-4)GlcNAc(b1-3)[Neu5Ac(a2-6)Gal(b1-4)GlcNAc(b1-6)]GalNAc
# Outline: as §1
# [7] = molecular target: Neu5Ac(a2-6)Gal(b1-4)GlcNAc(b1-6)GalNAc
# Outline: as §1
# [8] = molecular target: Neu5Ac(a2-6)Gal(b1-4)GlcNAc(b1-6)[Gal(b1-3)GlcNAc(b1-3)]Gal(b1-4)Glc
# Outline: as §1
# [9] = molecular target: Neu5Ac(a2-6)Gal(b1-4)GlcNAc(b1-6)[Gal(b1-3)]GalNAc
# Outline: as §1
# [10] = molecular target: Neu5Ac(a2-6)Gal(b1-4)GlcNAc6S
# Outline: as §1
# Neu5Ac(a2-6)GalNAc = molecular target: Neu5Ac(a2-6)GalNAc
# Outline: as §1
# [11] = molecular target: Neu5Ac(a2-6)GalNAc(b1-4)GlcNAc
# Outline: as §1
# [12] = molecular target: Neu5Ac(a2-6)GalNAc(b1-4)GlcNAc6S
# Outline: as §1
# [13] = molecular target: Neu5Ac(a2-6)GlcNAc(b1-4)GlcNAc
# Outline: as §1
# [14] = molecular target: Neu5Ac(a2-6)GlcNAc(b1-4)GlcNAc(b1-4)GlcNAc
# Outline: as §1
# Neu5Ac(a2-8)Neu5Ac = molecular target: Neu5Ac(a2-8)Neu5Ac
# Outline: as §1
# [15] = molecular target: Neu5Ac(a2-8)Neu5Ac(a2-3)Gal(b1-3)GalNAc(b1-4)[Neu5Ac(a2-3)]Gal(b1-4)Glc
# Outline: as §1
# [16] = molecular target: Neu5Ac(a2-8)Neu5Ac(a2-3)Gal(b1-3)GalNAc(b1-4)[Neu5Ac(a2-8)Neu5Ac(a2-3)]Gal(b1-4)Glc
# Outline: as §1
# [17] = molecular target: Neu5Ac(a2-8)Neu5Ac(a2-3)Gal(b1-4)Glc
# Outline: as §1
# [18] = molecular target: Neu5Ac(a2-8)Neu5Ac(a2-3)Gal(b1-4)GlcNAc
# Outline: as §1
# [19] = molecular target: Neu5Ac(a2-8)Neu5Ac(a2-3)[Gal(b1-3)GalNAc(b1-4)]Gal(b1-4)Glc
# Outline: as §1
# [20] = molecular target: Neu5Ac(a2-8)Neu5Ac(a2-3)[GalNAc(b1-4)]Gal(b1-4)Glc
# Outline: as §1
# [21] = molecular target: Neu5Ac(a2-8)Neu5Ac(a2-8)Neu5Ac
# Outline: as §1
# [22] = molecular target: Neu5Ac(a2-8)Neu5Ac(a2-8)Neu5Ac(a2-3)Gal(b1-4)Glc
# Outline: as §1
# [23] = molecular target: Neu5Ac(a2-8)Neu5Ac(a2-8)Neu5Ac(a2-3)[Gal(b1-3)GalNAc(b1-4)]Gal(b1-4)Glc
# Outline: as §1
# [24] = molecular target: Neu5Ac(a2-8)Neu5Ac(a2-8)Neu5Ac(a2-3)[GalNAc(b1-4)]Gal(b1-4)Glc
# Outline: as §1
# [25] = molecular target: Neu5Ac(a2-8)Neu5Ac(a2-8)Neu5Ac(a2-8)Neu5Ac(a2-3)[GalNAc(b1-4)]Gal(b1-4)Glc
# Outline: as §1
# [26] = molecular target: Neu5Ac(a2-8)Neu5Gc(a2-3)Gal(b1-4)GlcNAc
# Outline: as §1
# [27] = molecular target: Neu5Ac(b2-6)Gal(b1-4)GlcNAc
# Outline: as §1
# Neu5Ac(b2-6)GalNAc = molecular target: Neu5Ac(b2-6)GalNAc
# Outline: as §1
# [28] = molecular target: Neu5Ac9Ac(a2-3)Gal(b1-3)GlcNAc
# Outline: as §1
# [29] = molecular target: Neu5Ac9Ac(a2-3)Gal(b1-4)GlcNAc
# Outline: as §1
# [30] = molecular target: Neu5Ac9Ac(a2-6)Gal(b1-4)GlcNAc
# Outline: as §1
# [31] = molecular target: Neu5Gc(a2-3)Gal(b1-3)GlcNAc
# Outline: as §1
# [32] = molecular target: Neu5Gc(a2-3)Gal(b1-3)[Fuc(a1-4)]GlcNAc
# Outline: as §1
# Neu5Gc(a2-3)Gal(b1-4)Glc = molecular target: Neu5Gc(a2-3)Gal(b1-4)Glc
# Outline: as §1
# [33] = molecular target: Neu5Gc(a2-3)Gal(b1-4)GlcNAc
# Outline: as §1
# [34] = molecular target: Neu5Gc(a2-3)Gal(b1-4)GlcNAc(b1-3)Gal(b1-4)GlcNAc(b1-2)Man(a1-3)[Neu5Gc(a2-3)Gal(b1-4)GlcNAc(b1-3)Gal(b1-4)GlcNAc(b1-2)Man(a1-6)]Man(b1-4)GlcNAc(b1-4)GlcNAc
# Outline: as §1
# [35] = molecular target: Neu5Gc(a2-3)Gal(b1-4)[Fuc(a1-3)]GlcNAc
# Outline: as §1
# [36] = molecular target: Neu5Gc(a2-6)Gal(b1-4)GlcNAc
# Outline: as §1
# Neu5Gc(a2-6)GalNAc = molecular target: Neu5Gc(a2-6)GalNAc
# Outline: as §1
# [37] = molecular target: Neu5Gc(a2-8)Neu5Ac(a2-3)Gal(b1-4)GlcNAc
# Outline: as §1
# [38] = molecular target: Neu5Gc(a2-8)Neu5Gc(a2-3)Gal(b1-4)GlcNAc
# Outline: as §1
# [39] = molecular target: Neu5Gc(a2-8)Neu5Gc(a2-3)Gal(b1-4)GlcNAc(b1-3)Gal(b1-4)GlcNAc
# Outline: as §1
# [40] = molecular target: Neu5Gc(a2-8)Neu5Gc(a2-6)Gal(b1-4)GlcNAc
# Outline: as §1
# [41] = molecular target: Neu5Gc(b2-6)Gal(b1-4)GlcNAc
# Outline: as §1
binder,measurement,setting,value
B1,glycan array binding signal (z-score),[1],-0.295
same,glycan array binding signal (z-score),[2],-0.219
same,glycan array binding signal (z-score),[3],-0.309
same,glycan array binding signal (z-score),[4],-0.307
same,glycan array binding signal (z-score),[5],-0.286
same,glycan array binding signal (z-score),[6],-0.251
same,glycan array binding signal (z-score),[7],-0.205
same,glycan array binding signal (z-score),[8],-0.311
same,glycan array binding signal (z-score),[9],-0.324
same,glycan array binding signal (z-score),[10],-0.155
same,glycan array binding signal (z-score),Neu5Ac(a2-6)GalNAc,-0.196
same,glycan array binding signal (z-score),[11],-0.285
same,glycan array binding signal (z-score),[12],-0.23
same,glycan array binding signal (z-score),[13],1.47
same,glycan array binding signal (z-score),[14],-0.302
same,glycan array binding signal (z-score),Neu5Ac(a2-8)Neu5Ac,-0.107
same,glycan array binding signal (z-score),[15],-0.318
same,glycan array binding signal (z-score),[16],-0.329
same,glycan array binding signal (z-score),[17],-0.256
same,glycan array binding signal (z-score),[18],0.146
same,glycan array binding signal (z-score),[19],-0.306
same,glycan array binding signal (z-score),[20],-0.29
same,glycan array binding signal (z-score),[21],-0.273
same,glycan array binding signal (z-score),[22],-0.267
same,glycan array binding signal (z-score),[23],-0.297
same,glycan array binding signal (z-score),[24],-0.284
same,glycan array binding signal (z-score),[25],-0.279
same,glycan array binding signal (z-score),[26],-0.064
same,glycan array binding signal (z-score),[27],-0.321
same,glycan array binding signal (z-score),Neu5Ac(b2-6)GalNAc,-0.228
same,glycan array binding signal (z-score),[28],-0.194
same,glycan array binding signal (z-score),[29],-0.133
same,glycan array binding signal (z-score),[30],-0.174
same,glycan array binding signal (z-score),[31],-0.34
same,glycan array binding signal (z-score),[32],-0.325
same,glycan array binding signal (z-score),Neu5Gc(a2-3)Gal(b1-4)Glc,-0.33
same,glycan array binding signal (z-score),[33],-0.343
same,glycan array binding signal (z-score),[34],-0.31
same,glycan array binding signal (z-score),[35],-0.271
same,glycan array binding signal (z-score),[36],-0.34
same,glycan array binding signal (z-score),Neu5Gc(a2-6)GalNAc,-0.313
same,glycan array binding signal (z-score),[37],-0.329
same,glycan array binding signal (z-score),[38],-0.336
same,glycan array binding signal (z-score),[39],-0.301
same,glycan array binding signal (z-score),[40],-0.333
same,glycan array binding signal (z-score),[41],-0.338
